Measurements taken from patent US20190367612A1 (Daiichi Sankyo, published 2019).

Legend:
[1] = biological target: T1, amino-terminal peptide of cynomolgus monkey GPRC5D …(Biotin)-NH2 (cynomolgus monkey, C-terminal lysine carrying biotin, C-terminal amide); experiment: ELISA, chemiluminescence: biotinylated amino-terminal peptide of cynomolgus monkey GPRC5D on NeutrAvidin, scFv detected with HRP anti-FLAG antibody
T1 construct: also called amino-terminal peptide of biotinylated cynomolgus monkey GPRC5D
T1 peptide: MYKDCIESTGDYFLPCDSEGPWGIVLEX
Description: (§1) NeutrAvidin diluted to 1 μg/mL with PBS was added in an amount of 50 μL/well to 96-well Maxi-sorp plate (Black, Nunc/Thermo Fisher Scientific Inc.), and the plate was left standing overnight at 4° C. for immobilization. After washing three times with an ELISA buffer, the amino-terminal peptide of the biotinylated human or cynomolgus monkey GPRC5D (used in Example 10)-1) diluted to 1 μg/mL with PBS was added thereto, and the plate was shaken at room temperature for 1 hour. After washing three times with an ELISA buffer, the plate was blocked with Blocker Casein and washed three times with an ELISA buffer. Then, the C2037, C3048, C3015, or C3022 scFv was added to the plate and reacted at room temperature for 2 hours. After washing three times with an ELISA buffer, a horseradish peroxidase (HRP)-labeled anti-FLAG antibody diluted 5000-fold with an ELISA buffer was added thereto in an amount of 50 μL/well and reacted at room temperature for 1 hour. After washing five times with an ELISA buffer, SuperSignal Pico ELISA Chemiluminescent substrate was added. After 10 minutes, the chemiluminescence was measured using a plate reader.

human GPRC5D = biological target: T2, human GPRC5D (human, UniProt Q9NZD1 1-345); experiment: flow cytometry on KMS-34 cells (endogenous human GPRC5D), anti-FLAG antibody and Alexa 488 anti-mouse IgG detection
T2 construct: whole, on cells; also called hGPRC5D; G-protein coupled receptor family C group 5 member D
Description: The KMS-34 cells were recovered by centrifugation, washed twice with a FACS buffer (PBS containing 0.5% BSA and 2 mM EDTA, pH 7.4), and then suspended in the same solution as above. The C2037, C3048, C3015 or C3022 scFv was added to the obtained cell suspension, and the mixture was left standing at 4° C. for 2 hours. After washing twice with a FACS buffer, the cells were suspended by the addition of an anti-FLAG antibody (Sigma-Aldrich Corp.), and the mixture was further left standing at 4° C. for 1 hour. After washing twice with a FACS buffer, the cells were suspended by the addition of Alexa 488-labeled anti-mouse IgG antibody (Jackson ImmunoResearch Laboratories, Inc.), and the mixture was further left standing at 4° C. for 1 hour. After washing twice with a FACS buffer, the cells were fixed in 1% PFA (prepared from a 32% paraformaldehyde solution (Electron Microscopy Sciences)), followed by detection using a flow cytometer (FACSCanto™ II; Becton, Dickinson and Company). The data was analyzed using Flowjo (Tree Star, Inc.).

[2] = biological target: T3, human GPRC5D amino-terminal peptide MYKDCIESTGDYFLLCDAEGPWGIILE-K(Biotin)-NH2, having an intramolecular … (human, C-terminal lysine carrying biotin, C-terminal amide; intramolecularly formed disulfide bond); experiment: ELISA, chemiluminescence: biotinylated amino-terminal peptide of human GPRC5D on NeutrAvidin, scFv detected with HRP anti-FLAG antibody
T3 construct: Peptide Institute synthetic peptide; also called amino-terminal peptide of biotinylated human GPRC5D (disulfide bond present)
T3 peptide: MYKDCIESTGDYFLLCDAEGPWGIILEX
Description: as §1

- EC50 (read off the curve) [1]: ~5 nM
- binding result (human GPRC5D): binds
- EC50 (read off the curve) [2]: ~9 nM
B1: human antibody C2037 scFv (scFv)
scFv: [about 100 residues not listed]GKSNYPWGQGTLVTVSSGGGGSGGGGSGGGGSQPVLTQPPSASGTPGQRVTISCSGSNSNIGSRTVNWYQHLPGTAPRLLIYGNNQWPSGVPDRFSGSKSGSSASLAISGLRSEDEADYYCAAWDDSLSGVVFGGGTKLTVL
notes: also called C2037 antibody scFv; not shown: FLAG and His tags at the carboxyl terminus
